Measured values published in PubChem BioAssay AID256 (DTP/NCI, 2004).
Values joined by “and” are separate entries in the source; they are usually repeats but may differ in a detail not shown here. Equal entries are not always repeated. Further values from the same series stand in other lists. Toxic doses and inconclusive results are not listed.

Test system: CD2F1 mice, L1210 leukemia ip, survival T/C
Test: NCI In Vivo Anticancer Drug Screen. Data for tumor model L1210 Leukemia (intraperitoneal) in CD2F1 (CDF1) mice
Conditions: higher = longer survival
Procedure: The antitumor activity of compounds was measured in mice bearing transplantable tumors. Survival or tumor size were measured and the results are expressed as the measurement made in the treated group (T) divided by the measurement made in the vehicle treated control group (C). The tumor model used in this assay is L1210 Leukemia (intraperitoneal) in CD2F1 (CDF1) mice

O=NN(CCCl)C(=O)NCCCl
T/C (endpoint: mean survival time, dose: 3.75 mg/kg/injection, schedule: Q01DX001 (ip), vehicle: saline + alcohol): 100 % of control
T/C (endpoint: mean survival time, dose: 3.8 mg/kg/injection, schedule: Q01DX001 (ip), vehicle: saline + alcohol): 106 % of control
T/C (endpoint: mean survival time, dose: 4.0 mg/kg/injection, schedule: Q01DX001 (ip), vehicle: saline + alcohol): 111 % of control
T/C (endpoint: mean survival time, dose: 5.0 mg/kg/injection, schedule: Q01DX001 (ip), vehicle: Klucel (hydroxypropylcellulose) (HPC)): 103 % of control
T/C (endpoint: mean survival time, dose: 5.0 mg/kg/injection, schedule: Q01DX001 (ip), vehicle: saline): 96 % of control
T/C (endpoint: mean survival time, dose: 8.0 mg/kg/injection, schedule: Q01DX009 (ip), vehicle: other): 346 % of control
T/C (endpoint: mean survival time, dose: 14.0 mg/kg/injection, schedule: Q07DX003 (ip), vehicle: saline + alcohol): 636 % of control
T/C (endpoint: mean survival time, dose: 18.8 mg/kg/injection, schedule: Q01DX001 (ip), vehicle: saline + alcohol): 356 % of control
T/C (endpoint: mean survival time, dose: 20.0 mg/kg/injection, schedule: Q07DX003 (ip), vehicle: saline + alcohol): 460 % of control (2×) and 854 % of control
T/C (endpoint: mean survival time, dose: 25.0 mg/kg/injection, schedule: Q01DX001 (ip), vehicle: saline + alcohol): 431 % of control and 535 % of control
T/C (endpoint: mean survival time, dose: 26.0 mg/kg/injection, schedule: Q07DX003 (ip), vehicle: saline + alcohol): 520 % of control (2×) and 755 % of control
T/C (endpoint: mean survival time, dose: 27.0 mg/kg/injection, schedule: Q01DX001 (ip), vehicle: saline + alcohol): 490 % of control
T/C (endpoint: mean survival time, dose: 30.0 mg/kg/injection, schedule: Q01DX001 (ip), vehicle: Klucel (hydroxypropylcellulose) (HPC)): 439 % of control
T/C (endpoint: mean survival time, dose: 32.0 mg/kg/injection, schedule: Q01DX001 (ip), vehicle: saline): 740 % of control
T/C (endpoint: mean survival time, dose: 33.0 mg/kg/injection, schedule: Q07DX003 (ip), vehicle: saline + alcohol): 359 % of control
T/C (endpoint: mean survival time, dose: 40.0 mg/kg/injection, schedule: Q01DX001 (ip), vehicle: DMSO): 352 % of control
T/C (endpoint: mean survival time, dose: 64.0 mg/kg/injection, schedule: Q01DX001 (ip), vehicle: other): 602 % of control
T/C (endpoint: mean survival time, dose: 128.0 mg/kg/injection, schedule: Q01DX001 (ip), vehicle: saline + alcohol): 86 % of control
T/C (endpoint: median survival time, dose: 5.0 mg/kg/injection, schedule: Q01DX001 (ip), vehicle: Klucel (hydroxypropylcellulose) (HPC)): 108 % of control
T/C (endpoint: median survival time, dose: 7.0 mg/kg/injection, schedule: Q01DX009 (ip), vehicle: saline + alcohol): 365 % of control
T/C (endpoint: median survival time, dose: 10.0 mg/kg/injection, schedule: Q01DX005 (ip), vehicle: saline): 370 % of control
T/C (endpoint: median survival time, dose: 10.0 mg/kg/injection, schedule: Q03DX003 (ip), vehicle: DMSO): 444 % of control
T/C (endpoint: median survival time, dose: 15.0 mg/kg/injection, schedule: Q01DX005 (ip), vehicle: saline): 370 % of control
T/C (endpoint: median survival time, dose: 20.0 mg/kg/injection, schedule: Q01DX001 (ip), vehicle: saline): 370 % of control and 711 % of control
T/C (endpoint: median survival time, dose: 20.0 mg/kg/injection, schedule: Q03DX003 (ip), vehicle: DMSO): 608 % of control and 714 % of control
T/C (endpoint: median survival time, dose: 20.0 mg/kg/injection, schedule: Q04DX003 (ip), vehicle: saline + alcohol): 704 % of control
T/C (endpoint: median survival time, dose: 20.0 mg/kg/injection, schedule: Q07DX003 (ip), vehicle: saline + alcohol): 488 % of control
T/C (endpoint: median survival time, dose: 26.0 mg/kg/injection, schedule: Q07DX003 (ip), vehicle: saline + alcohol): 713 % of control
T/C (endpoint: median survival time, dose: 30.0 mg/kg/injection, schedule: Q01DX001 (ip), vehicle: saline): 517 % of control
T/C (endpoint: median survival time, dose: 32.0 mg/kg/injection, schedule: Q01DX001 (ip), vehicle: saline + alcohol): 412 % of control
T/C (endpoint: median survival time, dose: 33.0 mg/kg/injection, schedule: Q07DX003 (ip), vehicle: saline + alcohol): 354 % of control
T/C (endpoint: median survival time, dose: 40.0 mg/kg/injection, schedule: Q01DX001 (ip), vehicle: Klucel (hydroxypropylcellulose) (HPC)): 621 % of control
T/C (endpoint: median survival time, dose: 40.0 mg/kg/injection, schedule: Q01DX001 (ip), vehicle: saline): 370 % of control
T/C (endpoint: median survival time, dose: 53.3 mg/kg/injection, schedule: Q01DX001 (ip), vehicle: saline + alcohol): 103 % of control
T/C (endpoint: median survival time, dose: 80.0 mg/kg/injection, schedule: Q01DX001 (ip), vehicle: Klucel (hydroxypropylcellulose) (HPC)): 103 % of control
T/C (endpoint: median survival time, dose: 160.0 mg/kg/injection, schedule: Q01DX001 (ip), vehicle: Klucel (hydroxypropylcellulose) (HPC)): 95 % of control

O=C(O)CCCc1ccc(N(CCCl)CCCl)cc1
T/C (endpoint: mean survival time, dose: 7.5 mg/kg/injection, schedule: Q01DX009 (ip), vehicle: Klucel (hydroxypropylcellulose) (HPC)): 112 % of control
T/C (endpoint: mean survival time, dose: 16.0 mg/kg/injection, schedule: Q03HX016 (ip), vehicle: other): 112 % of control
